Here are results for 13 sequences from publication PMC5700166.

Only a part is listed here, and it is no random draw. The list includes weakly bound sequences.

What all share (assay): protein-binding microarray (PBM)
Common to all, as to settings: PBM: ~300 nM protein, 6 mM HEPES pH 7.8, 80 mM KCl, 0.5 mM EDTA, 0.5 mM EGTA, 6% glycerol, 35 ng/ul poly-dIdC, 1% milk, 1 h, room temperature; Ap Aiptasia and Nv Nematostella (sea anemones) / Co Capsaspora / Aq Amphimedon (sponge) / Dm Drosophila / Hu human; RHD is the Rel homology domain; high values mean tight binding; most listed sequences are background and not binding sites; double strand, one strand shown

One experiment addresses T1, GST-Ap-NF-kB RHD (UniProt A0A913YAJ5).
T1 sequence: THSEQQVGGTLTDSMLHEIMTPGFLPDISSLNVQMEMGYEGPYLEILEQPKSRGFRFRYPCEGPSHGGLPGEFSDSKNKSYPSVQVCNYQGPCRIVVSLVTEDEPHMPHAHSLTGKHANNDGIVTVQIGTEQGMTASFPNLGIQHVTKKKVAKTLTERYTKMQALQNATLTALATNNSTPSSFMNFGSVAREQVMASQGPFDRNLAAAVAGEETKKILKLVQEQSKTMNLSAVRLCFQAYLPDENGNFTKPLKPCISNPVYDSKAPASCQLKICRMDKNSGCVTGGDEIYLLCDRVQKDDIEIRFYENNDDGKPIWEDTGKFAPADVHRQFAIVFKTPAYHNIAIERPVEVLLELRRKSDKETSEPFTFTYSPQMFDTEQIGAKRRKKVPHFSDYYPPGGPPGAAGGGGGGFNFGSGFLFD

Experiment [1] concerns the target T2, GST-Nv-NF-kB (Cys allele) (UniProt E5G601).
T2 sequence: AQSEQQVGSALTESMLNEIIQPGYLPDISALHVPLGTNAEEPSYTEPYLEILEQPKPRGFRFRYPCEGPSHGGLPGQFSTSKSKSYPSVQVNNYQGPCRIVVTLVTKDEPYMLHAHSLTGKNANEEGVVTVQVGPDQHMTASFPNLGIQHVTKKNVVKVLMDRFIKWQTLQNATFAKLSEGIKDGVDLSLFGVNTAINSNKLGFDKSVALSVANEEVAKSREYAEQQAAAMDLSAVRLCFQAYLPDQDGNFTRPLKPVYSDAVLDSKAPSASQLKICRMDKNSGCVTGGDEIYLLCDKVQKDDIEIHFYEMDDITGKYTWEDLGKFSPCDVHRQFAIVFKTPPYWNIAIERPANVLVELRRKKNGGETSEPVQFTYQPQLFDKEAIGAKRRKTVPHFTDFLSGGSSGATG

For a further experiment, the target named is T3, GST-Co-NF-kB (UniProt F1ARL5).
T3 sequence: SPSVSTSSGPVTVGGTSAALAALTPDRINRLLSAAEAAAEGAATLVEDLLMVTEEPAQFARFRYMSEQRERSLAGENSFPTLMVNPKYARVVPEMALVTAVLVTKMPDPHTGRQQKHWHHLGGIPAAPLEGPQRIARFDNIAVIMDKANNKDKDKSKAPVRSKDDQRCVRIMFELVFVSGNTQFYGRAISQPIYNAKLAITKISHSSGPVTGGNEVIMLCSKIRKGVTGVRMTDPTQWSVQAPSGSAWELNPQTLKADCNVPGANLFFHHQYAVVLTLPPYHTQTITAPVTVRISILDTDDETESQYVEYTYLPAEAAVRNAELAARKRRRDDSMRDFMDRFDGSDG

The target in a further experiment is T4, GST-Dm-Relish (UniProt Q94527).
T4 sequence: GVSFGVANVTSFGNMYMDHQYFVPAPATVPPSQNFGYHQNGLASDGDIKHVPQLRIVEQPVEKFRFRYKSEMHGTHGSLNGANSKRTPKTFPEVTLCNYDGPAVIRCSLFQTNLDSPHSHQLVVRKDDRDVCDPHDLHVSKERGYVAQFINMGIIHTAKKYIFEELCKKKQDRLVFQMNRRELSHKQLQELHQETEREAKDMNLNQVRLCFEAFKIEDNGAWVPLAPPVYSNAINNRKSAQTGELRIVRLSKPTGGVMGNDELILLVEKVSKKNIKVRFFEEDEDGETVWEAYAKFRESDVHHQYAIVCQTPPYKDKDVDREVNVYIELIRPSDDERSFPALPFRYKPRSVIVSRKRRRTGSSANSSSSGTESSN

In a further experiment the target is T5, GST-Aq-NF-kB (UniProt A9Y5G7).
T5 sequence: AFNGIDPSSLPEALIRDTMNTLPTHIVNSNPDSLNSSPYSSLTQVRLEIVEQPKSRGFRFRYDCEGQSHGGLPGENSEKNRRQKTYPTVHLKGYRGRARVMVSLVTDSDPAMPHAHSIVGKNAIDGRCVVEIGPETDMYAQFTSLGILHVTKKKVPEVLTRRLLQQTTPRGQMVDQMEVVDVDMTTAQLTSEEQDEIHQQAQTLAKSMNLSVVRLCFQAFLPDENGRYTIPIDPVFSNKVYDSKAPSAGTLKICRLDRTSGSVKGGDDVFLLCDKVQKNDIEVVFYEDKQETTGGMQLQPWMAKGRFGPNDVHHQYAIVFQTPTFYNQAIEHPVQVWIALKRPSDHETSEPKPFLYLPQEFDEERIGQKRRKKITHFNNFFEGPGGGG

As to “CCGATTAACATCAAGAAATTCCGTGATGTTAATCGGGTCTTGATTCGCTTGACGCTGCTG”, the binding signal in the experiment with GST-Ap-NF-kB RHD amounted to 0.0452 z-score; in experiment [1], 0.746 z-score; with GST-Co-NF-kB it was 0.627 z-score; with GST-Dm-Relish, 0.863 z-score; with GST-Aq-NF-kB it was 1.24 z-score.

In the case of “CCGATTAACATCACTTGATAATCTGATGTTAATCGGGTCTTGATTCGCTTGACGCTGCTG”, the binding signal with GST-Ap-NF-kB RHD is -0.732 z-score; in experiment [1] it was 0.0686 z-score; with GST-Co-NF-kB it was -0.188 z-score; in the experiment with GST-Dm-Relish it was -0.425 z-score; with GST-Aq-NF-kB it was -0.501 z-score.

For “CCGATTAACATCAGACTTGAGTATGATGTTAATCGGGTCTTGATTCGCTTGACGCTGCTG”, the binding signal with GST-Ap-NF-kB RHD was -0.656 z-score; in experiment [1], -0.588 z-score; in the experiment with GST-Co-NF-kB, -0.175 z-score; in the experiment with GST-Dm-Relish it was -1.51 z-score; with GST-Aq-NF-kB, -0.704 z-score.

For the sequence “CCGATTAACATCACAATAAAATGTGATGTTAATCGGGTCTTGATTCGCTTGACGCTGCTG”, the binding signal with GST-Ap-NF-kB RHD is -1.06 z-score; in experiment [1], -0.541 z-score; in the experiment with GST-Co-NF-kB it was -0.545 z-score; with GST-Dm-Relish it was 0.975 z-score; in the experiment with GST-Aq-NF-kB, -0.564 z-score.

Regarding “CCGATTAACATCAGCTGACTTCTTGATGTTAATCGGGTCTTGATTCGCTTGACGCTGCTG”, the binding signal in the experiment with GST-Ap-NF-kB RHD is -1 z-score; in experiment [1], -0.729 z-score; in the experiment with GST-Co-NF-kB, -0.47 z-score; with GST-Dm-Relish it was -1.2 z-score; in the experiment with GST-Aq-NF-kB, -0.889 z-score.

With “CCGATTAACATCAGGTAATATATTGATGTTAATCGGGTCTTGATTCGCTTGACGCTGCTG”, the binding signal with GST-Ap-NF-kB RHD was 0.612 z-score; in experiment [1] it was 0.3 z-score; with GST-Co-NF-kB, 0.572 z-score; with GST-Dm-Relish it was 0.0031 z-score; in the experiment with GST-Aq-NF-kB it was 0.537 z-score.

As to “CCGATTAACATCACAACCTACCATGATGTTAATCGGGTCTTGATTCGCTTGACGCTGCTG”, the binding signal is 0.409 z-score with GST-Ap-NF-kB RHD; -0.623 z-score in experiment [1]; 0.908 z-score with GST-Co-NF-kB; 0.104 z-score in the experiment with GST-Dm-Relish; -0.47 z-score with GST-Aq-NF-kB.

As for “CCGATTAACATCAGCACTTGGTTTGATGTTAATCGGGTCTTGATTCGCTTGACGCTGCTG”, the binding signal was -0.0856 z-score in the experiment with GST-Ap-NF-kB RHD; -0.201 z-score in experiment [1]; -0.105 z-score with GST-Co-NF-kB; -0.528 z-score with GST-Dm-Relish; -0.526 z-score in the experiment with GST-Aq-NF-kB.

For the sequence “CCGATTAACATCACGGAATGTGATGATGTTAATCGGGTCTTGATTCGCTTGACGCTGCTG”, the binding signal with GST-Ap-NF-kB RHD was -0.367 z-score; in experiment [1] it was -0.637 z-score; with GST-Co-NF-kB, -0.385 z-score; with GST-Dm-Relish, 0.357 z-score; with GST-Aq-NF-kB it was -0.135 z-score.

Take “CCGATTAACATCAGAGGTGCTTCTGATGTTAATCGGGTCTTGATTCGCTTGACGCTGCTG”: the binding signal with GST-Ap-NF-kB RHD was -0.0333 z-score; in experiment [1], 0.709 z-score; with GST-Co-NF-kB, -1.09 z-score; in the experiment with GST-Dm-Relish, 0.656 z-score; with GST-Aq-NF-kB, 0.271 z-score.

For “CCGATTAACATCAGTCCGTATTATGATGTTAATCGGGTCTTGATTCGCTTGACGCTGCTG”, the binding signal in the experiment with GST-Ap-NF-kB RHD is -0.407 z-score; in experiment [1], 0.536 z-score; with GST-Co-NF-kB, 0.0673 z-score; with GST-Dm-Relish, 0.0974 z-score; with GST-Aq-NF-kB it was -0.0172 z-score.

On to “CCGATTAACATCAGGGCGTTCAATGATGTTAATCGGGTCTTGATTCGCTTGACGCTGCTG”, for which the binding signal with GST-Ap-NF-kB RHD is 0.266 z-score; in experiment [1], 0.318 z-score; in the experiment with GST-Co-NF-kB, -0.773 z-score; with GST-Dm-Relish, -0.0928 z-score; with GST-Aq-NF-kB it was -0.131 z-score.

With “CCGATTAACATCACGGTGAACAGTGATGTTAATCGGGTCTTGATTCGCTTGACGCTGCTG”, the binding signal with GST-Ap-NF-kB RHD was 0.378 z-score; in experiment [1] it was -0.707 z-score; with GST-Co-NF-kB, -0.296 z-score; with GST-Dm-Relish, 0.306 z-score; with GST-Aq-NF-kB, 0.0687 z-score.
